Results taken from PubChem BioAssay AID687022 (Broad Institute, 2013).
The whole screen tested about 1,000 compounds, of which about 360 (36%) were called active.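 Rule for the calls: active = Fitted curve of melting temperature shift crosses the 1.0 threshold at or below the sample's highest valid tested concentration; inconclusive = Flat fit with activity 30 to 70, or invalid fit; inactive = Opposite direction, flat within 30, or no crossing.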 This part holds few or none of the hits.

These compounds were tested against Fibroblast growth factor 22 (Homo sapiens) (UniProt Q9HCT0) (assay: FGF22 ligand-induced thermal stabilization – biophysical, thermal shift, cherry-pick, FGF22 synaptogenesis inhibitor project, dose response (AID 687022; note: reference of the scale not given here)). Settings: recombinant FGF22 thermal shift, SYPRO orange melting; at 38 µM (top of the series) unless noted.
Sequence of UniProt Q9HCT0 (Q9HCT0 whole entry, looked up): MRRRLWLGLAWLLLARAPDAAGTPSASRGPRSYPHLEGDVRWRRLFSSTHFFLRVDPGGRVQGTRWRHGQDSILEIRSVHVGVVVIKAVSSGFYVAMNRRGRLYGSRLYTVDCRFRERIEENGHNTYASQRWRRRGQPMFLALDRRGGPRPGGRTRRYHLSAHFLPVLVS

Row | Structure (SMILES) | Tm shift activity
1 | Nc1nc(-c2cccnc2)nn1C(=O)c1ccc(F)cc1 | inactive: -0.035%
2 | COc1cc(OC)c(C(=O)OCC(=O)NCC2CCCCC2)cc1OC | inactive: -0.139%
3 | O=C(C1CCOCC1)N1C[C@@H]2[C@H](c3ccccc31)[C@@H](CO)N2Cc1ccccc1 | inactive: -0.009% [at 42 µM]
4 | CCS(=O)(=O)NCCNc1ccc([N+](=O)[O-])cc1 | inactive: -0.119%
5 | C[C@@H]1CN([C@@H](C)CO)S(=O)(=O)c2ccc(C3=CCCCC3)cc2O[C@H]1CN(C)C(=O)CN(C)C | inactive: -0.231%
6 | CS(=O)(=O)Nc1ccc2c(c1)[C@@H]1C[C@H](CC(=O)NCCc3ccccc3)O[C@@H](CO)[C@@H]1O2 | inactive: 0.062%
7 | CC(C)NC(=O)N1C[C@@H]2[C@H](c3ccccc31)[C@@H](CO)N2Cc1ccccn1 | inactive: -0.058% [at 42 µM]
8 | CCC(=O)N1CC2(C1)[C@H](c1ccccc1)[C@H](CO)N2S(=O)(=O)Cc1ccccc1 | inactive: -0.305%
9 | COc1ccc(C(=O)Nc2ccccc2N2CCOCC2)cc1S(=O)(=O)N1CCOCC1 | inactive: -0.009%
10 | Cc1noc(C)c1NC(=O)Nc1ccc2c(c1)CC(=O)N([C@@H](C)CO)C[C@H](C)[C@@H](CN(C)Cc1ccc3c(c1)OCO3)O2 | inactive: -0.148%
11 | C/C(CC(=O)Nc1ccc2c(c1)OCCO2)=N\NC(=O)COc1ccc(C)cc1Br | inactive: -0.098%
12 | OC[C@H]1[C@H](c2ccc(-c3cccnc3)cc2)[C@H]2CN(Cc3ccccn3)CCCCN21 | inactive: -0.002%
13 | C[C@@H]1CN([C@H](C)CO)C(=O)Cc2cc(NS(C)(=O)=O)ccc2O[C@@H]1CN(C)Cc1ccc(C(=O)O)cc1 | inactive: 0.177% [at 42 µM]
14 | COc1ccc(CCNS(=O)(=O)CCNC(=O)c2ccc3c(c2)OCO3)cc1 | inactive: -0.261%
15 | CCCCNC(=O)C1c2cc(OC)c(OC)cc2C(=O)N(C)C1c1cccs1 (stereo not drawn) | inactive: 0.787% [at 5 µM]
16 | COCC(=O)N1C[C@H]2[C@@H](c3ccccc31)[C@H](CO)N2C(=O)Nc1ccccc1F | inactive: -0.026%
17 | Cc1ccccc1-c1ccc2c(c1)O[C@H](CN(C)CC1CC1)[C@H](C)CN([C@H](C)CO)S2(=O)=O | inactive: -0.477%
18 | CC1C=NC(S(=O)(=O)N2CC[C@@H]3[C@@H](CO)N(C)c4ccc(-c5ccc(F)cc5)cc4[C@@H]32)=N1 (stereo partly drawn) | inactive: -0.187%
19 | COc1ccc(-c2ccc([C@H]3[C@H](CO)N4CCCCN(C(=O)c5ccc6c(c5)OCO6)C[C@@H]34)cc2)cc1 | inactive: -0.203% [at 42 µM]
20 | Cc1noc(C)c1S(=O)(=O)N(C)C[C@H]1Oc2ccc(NS(=O)(=O)c3cccs3)cc2C(=O)N([C@@H](C)CO)C[C@H]1C | inactive: -0.774%
21 | Cc1ccc(S(=O)(=O)Nc2ccc3c(c2)C(=O)N([C@@H](C)CO)C[C@@H](C)[C@@H](CN(C)C)O3)cc1 | inactive: -0.078%
22 | O=S(=O)(c1cccc2cccnc12)N1CCN(Cc2ccccc2)CC1 | inactive: -0.1%
23 | COc1ccc(/C=N/N2C(C)CCCC2C)cc1OC (stereo not drawn) | inactive: 0.063%

Row | Structure (SMILES) | Tm shift activity
24 | COc1cccc2sc(NNC(=O)C3COc4ccccc4O3)nc12 (stereo not drawn) | inactive: -0.355%
25 | C[C@@H]1CN([C@@H](C)CO)C(=O)c2cc(NS(=O)(=O)c3cn(C)cn3)ccc2O[C@@H]1CN(C)CC1CC1 | inactive: -0.126% [at 42 µM]
26 | O=C(C[C@H]1C[C@@H]2c3cc(NC(=O)NC4CCCC4)ccc3O[C@@H]2[C@H](CO)O1)NC1CCCC1 | inactive: -0.22%
27 | COCC#Cc1ccc2c(c1)O[C@H](CN(C)C(=O)c1ccccc1)[C@@H](C)CN([C@@H](C)CO)S2(=O)=O | inactive: 0.34% [at 42 µM]
28 | Cc1ccc(S(=O)(=O)N2C[C@@H](O)COC[C@@H]3O[C@@H](CC(=O)NCc4ccc(Cl)c(Cl)c4)CC[C@H]32)cc1 | inactive: -5.1% [at 42 µM]
29 | Cn1c(=O)c2c(-c3ccccc3)n(-c3cc([N+](=O)[O-])ccc3O)cc2n(C)c1=O | inactive: 0.019%
30 | Cc1ccc(S(=O)(=O)N[C@H]2CC[C@H](CCNC(=O)C3CCOCC3)O[C@H]2CO)cc1 | inactive: -0.002% [at 42 µM]
31 | COc1ccc(NS(=O)(=O)c2cccc(C(=O)NN=Cc3ccc(OC)c(O)c3)c2)cc1 | inactive: -0.26%
32 | C[C@H](CO)N1C[C@H](C)[C@H](CN(C)C(=O)CC2CC2)Oc2ncc(C#CC3(O)CCCC3)cc2C1=O | inactive: -0.167%
33 | CCC(C)[C@H](NC(=O)N1CCn2c1nc1ccccc12)C(=O)NCCc1ccccc1 (stereo partly drawn) | inactive: -0.929%
34 | COc1ccc(S(=O)(=O)N[C@H]2CC[C@H](CC(=O)N3CCc4ccccc4C3)O[C@@H]2CO)cc1 | inactive: -0.166%
35 | Cc1ccc(-c2c[n+](CC(=O)Nc3ccc(C)cc3C)c3n2CCC3)cc1 | inactive: -0.152%
36 | CCCN(C)C[C@@H]1Oc2cc(C#CC(C)(C)O)ccc2S(=O)(=O)N([C@@H](C)CO)C[C@@H]1C | inactive: -0.025% [at 42 µM]
37 | CCC(=O)Nc1ccc2c(c1)C(=O)N(C)C[C@H](OC)[C@@H](C)CN(C(=O)CC)[C@@H](C)CO2 | inactive: -0.111% [at 42 µM]
38 | Oc1ccc(C=NNC(=S)Nc2ccccc2)nc1 | inactive: 0.074%
39 | COc1ccc(S(=O)(=O)N(C(C)=O)c2ccc(OC(C)=O)c3ccccc23)cc1[N+](=O)[O-] | inactive: 0.069%
40 | C[C@H]1CN([C@@H](C)CO)C(=O)c2cc(NC(=O)c3ccncc3)ccc2O[C@@H]1CN(C)S(=O)(=O)c1cn(C)cn1 | inactive: 0.122%
41 | CN(C)CC(=O)Nc1ccc2c(c1)[C@H]1C[C@@H](CC(=O)NCC3CC3)O[C@H](CO)[C@H]1O2 | inactive: -0.011%
42 | C[C@H](CO)N1C[C@H](C)[C@@H](CN(C)C(=O)Nc2cccc3ccccc23)Oc2c(NS(C)(=O)=O)cccc2C1=O | inactive: -0.1% [at 42 µM]
43 | CN(C)S(=O)(=O)n1cnc([C@@H]2[C@@H]3C(=O)OC[C@@H]3C[C@]23N=CN(Cc2ccccc2)C3=O)c1 | inactive: -0.031%
44 | O=C(NNC(=O)c1ccccc1O)c1ccc(NS(=O)(=O)c2ccc(F)c(F)c2)cc1 | inactive: -0.106%
45 | CCCCN1CC(N2CCN(Cc3cccc(C)c3)CC2)CS1(=O)=O (stereo not drawn) | inactive: 0.007%
46 | COc1cc(/C=N/NC(=O)c2ccncc2)ccc1OCC(=O)Nc1cccc([N+](=O)[O-])c1 | inactive: -0.027%

Row | Structure (SMILES) | Tm shift activity
47 | Cc1ccc(CN2CCNC(=O)C2CC(=O)N(C)C2CCCCC2)cc1 (stereo not drawn) | inactive: -0.116%
48 | CC(C)(C)NC(=O)N1CCC(CO)(Cc2ccccc2Cl)CC1 | inactive: -0.024%
49 | C[C@H]1CN([C@@H](C)CO)S(=O)(=O)c2ccc(C#CC3CCCCC3)cc2O[C@@H]1CN(C)C | inactive: 0.261% [at 42 µM]
50 | C[C@H](CO)N1C[C@H](C)[C@H](CN(C)C(=O)Nc2ccccc2)Oc2ccc(NC(=O)Nc3ccccc3)cc2CC1=O | inactive: 0.289%
51 | O=C(O)C1CSC(c2ccc3c(c2)OCO3)N1 (stereo not drawn) | inactive: 0.16%
52 | C[C@H](CO)N1C[C@H](C)[C@@H](CN(C)CC2CC2)Oc2ccc(NS(=O)(=O)c3cccs3)cc2C1=O | inactive: -0.129% [at 42 µM]
53 | CN(CC(=O)Nc1ccccc1Cl)C(=O)COC(=O)c1nc(Cl)ccc1Cl | inactive: -0.071%
54 | C[C@H](CO)N1C[C@H](C)[C@H](CN(C)C(=O)c2cc(-c3ccccc3)on2)OCc2cnnn2CCCC1=O | inactive: 0.029%
55 | CCCN(C)C[C@@H]1OCCCC[C@@H](C)Oc2ccc(NC(=O)NC(C)C)cc2C(=O)N([C@@H](C)CO)C[C@@H]1C | inactive: -0.164%
56 | CC(=O)Nc1ccc(S(=O)(=O)Nc2ccn(Cc3ccccc3Cl)n2)cc1 | inactive: -0.493%
57 | O=C(C[C@H]1CC[C@H]2[C@@H](COC[C@H](O)CN2CC2CCOCC2)O1)NCC1CCCCC1 | inactive: -0.095% [at 42 µM]
58 | CC1CN(C(=O)C(C)N2CCN(c3ccccc3Cl)CC2)CC(C)O1 (stereo not drawn) | inactive: -0.188%
59 | O=C(N[C@H]1C=C[C@H](CC(=O)N2CCCCC2)O[C@H]1CO)c1cccc(F)c1 | inactive: 0.293%
60 | O=C(C[C@@H]1CC[C@H]2[C@@H](COC[C@@H](O)CN2C(=O)c2ccccc2F)O1)NCc1ccccc1 | inactive: 0.089% [at 42 µM]
61 | O=C(Cc1cccnc1)N[C@H]1CC[C@H](CCn2cc(-c3ccccc3F)nn2)O[C@H]1CO | inactive: -0.128%
62 | CC(C)(CNS(=O)(=O)c1ccc2c(c1)OCCO2)N1CCOCC1 | inactive: -0.045%
63 | COc1cccc(NC(=O)N2C[C@H](O)COC[C@@H]3O[C@@H](CC(=O)NC4CCC4)CC[C@H]32)c1 | inactive: -0.128%
64 | COc1ccc(NC(=O)N(C)C[C@@H]2Oc3ccc(NS(=O)(=O)c4ccccc4)cc3C(=O)N([C@H](C)CO)C[C@H]2C)cc1 | inactive: 0.043% [at 42 µM]
65 | CC(C)C#Cc1ccc([C@H]2[C@H](CO)N3C(=O)CN(C(=O)C4CCCCC4)C[C@@H]23)cc1 | inactive: -1.29% [at 19.5 µM]
66 | C=CCOc1ccc2c(c1)C(=NO)c1cc(OCC=C)ccc1-2 | inactive: -0.021%
67 | OC[C@@H]1[C@@H](c2ccc(-c3cccnc3)cc2)[C@@H]2CN(Cc3ccccn3)CCCCN12 | inactive: -0.223%
68 | Cc1ccc(S(=O)(=O)N(C)/N=C/c2ccc(N(C)C)cc2)cc1 | inactive: -0.176%
